Measurements from the supplement of paper PMC9174493.
Some of the results follow. Single values of this set are uncertain. Values with irradiation are relative to irradiated vehicle.

Tests used:
[1] = tested on: A549-Dual; assay: NF-kB reporter (SEAP) activity, viability-corrected, relative to vehicle (fold change vs vehicle); higher = more activation of STING-IRF / NF-kB immune response reporter; settings: 10 µM
[2] = tested on: A549-Dual; assay: ISRE reporter (Lucia luciferase) activity, viability-corrected, relative to vehicle (fold change vs vehicle); higher = more activation of STING-IRF / NF-kB immune response reporter; settings: 10 µM
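Throughout, for NF-kB reporter (SEAP) activity, viability-corrected, relative to vehicle: viability correction based on the alamar blue assay, with concentrations leaving 10% survival or less dropped.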

Row | SMILES | NF-kB reporter ([1]; irradiation: 8 Gy/4 fr) | NF-kB reporter ([1]; irradiation: none) | ISRE reporter ([2]; irradiation: 8 Gy/4 fr) | ISRE reporter ([2]; irradiation: none)
1 | CCCc1ncc(C[n+]2ccccc2C)c(N)n1.Cl.[Cl-] [Amprolium HCl] | 0.867 | 1.18 | 0.86 | 1.18
2 | NC(=O)c1nc(F)cnc1O [Favipiravir (T-705)] | 0.593 | 0.816 | 0.642 | 0.803
3 | CCCCCCCCNC(=N)NC(=N)NCc1ccc(Cl)c(Cl)c1.Cl [Olanexidine Hydrochloride semihydrate] | 1.39 | 2.16 | 0.558 | 1.67
4 | CC(=O)Oc1cc(C(F)(F)F)ccc1C(=O)O [Triflusal] | 1.1 | 0.779 | 1.05 | 0.722
5 | CCN(CC)C(=S)SSC(=S)N(CC)CC [Disulfiram] | 0.642 | 0.793 | 0.8 | 1.01
6 | CC1(C)SC2C(NC(=O)C(C(=O)O)c3ccsc3)C(=O)N2C1C(=O)O.[NaH].[NaH] (centres undefined) [Ticarcillin sodium] | 0.84 | 1.12 | 1.1 | 0.834
7 | N[C@@H](CS)C(=O)O [L-cysteine] | 0.769 | 0.712 | 0.729 | 0.616
8 | CC1=C(C(=O)OC(C)C)C(c2cccc([N+](=O)[O-])c2)C(C(=O)OC2CN(C(c3ccccc3)c3ccccc3)C2)=C(N)N1 (centres undefined) [Azelnidipine] | 0.376 | 1.37 | 0.445 | 0.789
9 | Nc1ccn(C2OC(CO)C(O)C2O)c(=O)n1 (centres undefined) [Cytidine] | 0.836 | 0.805 | 0.964 | 0.813
10 | O=c1cc[nH]c(=S)[nH]1 [2-Thiouracil] | 0.799 | 0.829 | 0.921 | 0.772
11 | CN(CC(=O)O)C(=N)N [Creatine] | 0.94 | 1.11 | 0.864 | 1.02
12 | CCN(CC)C(=O)c1cccnc1 [Nikethamide] | 1.39 | 0.673 | 1.39 | 0.657
13 | Cl.Cl.O=C(O)COCCN1CCN(C(c2ccccc2)c2ccc(Cl)cc2)CC1 (centres undefined) [Levocetirizine Dihydrochloride] | 1.03 | 0.74 | 1.46 | 0.842
14 | CC/C=C\C/C=C\C/C=C\C/C=C\C/C=C\CCCC(=O)O [Eicosapentaenoic Acid] | 0.659 | 0.501 | 0.663 | 0.512
15 | O=C1c2c(O)cccc2Cc2cccc(O)c21 [Dithranol] | 0.828 | 0.481 | 0.737 | 0.588
16 | CCC1OC(=O)C(C)C(OC2CC(C)(OC)C(O)C(C)O2)C(C)C(OC2OC(C)CC(N(C)C)C2O)C(C)(OC)CC(C)C(=O)C(C)C(O)C1(C)O (centres undefined) [Clarithromycin] | 1.13 | 1.14 | 1.07 | 0.971
17 | Cc1ccc2c(Cl)cc(Cl)c(O)c2n1 [Chlorquinaldol] | 0.295 | 0.551 | 0.356 | 1.57
18 | CC(C)(Oc1ccc(C(=O)c2ccc(Cl)cc2)cc1)C(=O)O [Fenofibric acid] | 0.659 | 0.943 | 0.693 | 0.84
19 | CN1c2ccccc2C(=O)N2CCc3c([nH]c4ccccc34)C21 (centres undefined) [Evodiamine] | 0.849 | 1.26 | 0.21 | 0.601

Row | SMILES | NF-kB reporter ([1]; irradiation: 8 Gy/4 fr) | NF-kB reporter ([1]; irradiation: none) | ISRE reporter ([2]; irradiation: 8 Gy/4 fr) | ISRE reporter ([2]; irradiation: none)
20 | [I-].[K+] [Potassium Iodide] | 0.823 | 0.954 | 0.894 | 0.785
21 | NCC(O)c1ccc(O)c(O)c1.O.O=C(O)C(O)C(O)C(=O)O (centres undefined) [Noradrenaline bitartrate monohydrate] | 1.16 | 1.3 | 1.06 | 1.2
22 | CCOc1cc(CC(=O)NC(CC(C)C)c2ccccc2N2CCCCC2)ccc1C(=O)O (centres undefined) [Repaglinide] | 0.618 | 0.786 | 0.793 | 0.667
23 | O=C(O)c1cc2ccccc2c(Cc2c(O)c(C(=O)O)cc3ccccc23)c1O.OCCOCCN1CCN(C(c2ccccc2)c2ccc(Cl)cc2)CC1 [Hydroxyzine pamoate] | 1.44 | 0.983 | 0.57 | 0.471
24 | C[C@@H](O)[C@H](N)C(=O)O [L-Threonine] | 2.32 | 3.58 | 2.17 | 9.33
25 | O=C([O-])CC(O)(CC(=O)[O-])C(=O)[O-].O=C([O-])CC(O)(CC(=O)[O-])C(=O)[O-].[BiH6+3].[K+].[K+].[K+].[K+].[K+] [Bismuth Subcitrate Potassium] | 1.02 | 1.07 | 1.16 | 1.2
26 | CS(=O)(=O)O.CS(=O)(=O)O.N=C(N)Nc1ccc(C(=O)Oc2ccc3cc(C(=N)N)ccc3c2)cc1 [Nafamostat Mesylate] | 0.794 | 1.34 | 0.49 | 1.14
27 | COc1ccc(C2OCC3C(c4ccc(OC5OC(CO)C(O)C(O)C5O)c(OC)c4)OCC23)cc1OC (centres undefined) [Forsythin] | 0.734 | 1.15 | 0.711 | 0.845
28 | Oc1ccc(C2COc3cc(O)ccc3C2)cc1 (racemic) [(±)-Equol] | 0.619 | 0.886 | 0.536 | 0.717
29 | C1CNCCN1 [Piperazine] | 0.758 | 0.857 | 0.862 | 0.801
30 | CC(=O)OC1CC2CCC1(C)C2(C)C (centres undefined) [Bornyl acetate] | 0.774 | 1.02 | 0.731 | 0.844
31 | CN1C2CCCC1CC(NC(=O)c1nn(C)c3ccccc13)C2.Cl (centres undefined) [Granisetron HCl] | 0.943 | 1.16 | 0.773 | 0.664
32 | Oc1ccc(C2COc3cc(O)ccc3C2)cc1 (centres undefined) [Equol] | 0.718 | 0.762 | 0.801 | 0.77
33 | Cc1cnc(C(=O)NCCc2ccc(S(=O)(=O)NC(=O)NC3CCCCC3)cc2)cn1 [Glipizide] | 0.654 | 1.08 | 0.568 | 0.857
34 | C/C(=C(/CCO)SSCC1CCCO1)N(C=O)Cc1cnc(C)nc1N (centres undefined) [Fursultiamine] | 1.23 | 0.936 | 1.08 | 0.777
35 | N[C@@H](Cc1cc(I)c(Oc2cc(I)c(O)c(I)c2)c(I)c1)C(=O)O [L-Thyroxine] | 1.03 | 1.1 | 0.718 | 0.672
36 | OCC(O)C(O)C(O)C(O)CO (centres undefined) [Sorbitol] | 0.679 | 1.27 | 0.661 | 1.03
37 | Cc1nc(C)c(Cl)c(O)c1Cl [Clopidol] | 0.772 | 0.816 | 0.825 | 0.855
38 | CCC(=O)[N]([Na])S(=O)(=O)c1ccc(-c2c(-c3ccccc3)noc2C)cc1 [Parecoxib Sodium] | 0.678 | 1.08 | 0.611 | 0.762

Row | SMILES | NF-kB reporter ([1]; irradiation: 8 Gy/4 fr) | NF-kB reporter ([1]; irradiation: none) | ISRE reporter ([2]; irradiation: 8 Gy/4 fr) | ISRE reporter ([2]; irradiation: none)
39 | NCCS(=O)(=O)O [Taurine] | 1.13 | 0.856 | 0.964 | 0.673
40 | CCCC(NC(=O)C1C2CCCC2CN1C(=O)C(NC(=O)C(NC(=O)c1cnccn1)C1CCCCC1)C(C)(C)C)C(=O)C(=O)NC1CC1 (centres undefined) [Telaprevir (VX-950)] | 0.441 | 0.996 | 0.438 | 1.11
41 | CN1CCc2cc3c(cc2C(=O)Cc2ccc4c(c2C1)OCO4)OCO3 [Protopine] | 0.94 | 0.991 | 0.863 | 1.73
42 | CN(Cc1ccc(C(C)(C)C)cc1)Cc1cccc2ccccc12.Cl [Butenafine HCl] | 0.423 | 0.739 | 0.474 | 0.654
43 | N[C@@H](CO)C(=O)O [L-serine] | 0.861 | 0.827 | 0.837 | 0.696
44 | CCOc1cc(N)c(Cl)cc1C(=O)NCC1CN(Cc2ccc(F)cc2)CCO1 (centres undefined) [Mosapride] | 0.748 | 0.632 | 0.947 | 0.966
45 | CN1CCN(CC/C=C2/c3ccccc3Sc3ccc(S(=O)(=O)N(C)C)cc32)CC1 [Thiothixene] | 0.895 | 1.2 | 0.908 | 2.06
46 | OCCOc1ccc(/C(=C(/CCCl)c2ccccc2)c2ccccc2)cc1 [Ospemifene] | 1.2 | 0.825 | 1.25 | 0.97
47 | CCC1/C=C(\C)CC(C)CC(OC)C2OC(O)(C(=O)C(=O)N3CCCCC3C(=O)OC(/C(C)=C/C3CCC(O)C(OC)C3)C(C)C(O)CC1=O)C(C)CC2OC (centres undefined) [Ascomycin (FK520)] | 0.753 | 1.08 | 0.785 | 2.75
48 | Cl.N=C(N)NC(=N)N1CCOCC1 [Moroxydine HCl] | 0.734 | 0.915 | 0.874 | 0.782
49 | COc1ccccc1OCC(O)COC(N)=O (centres undefined) [Methocarbamol] | 1.13 | 1.28 | 1.09 | 1.02
50 | CCc1ccc(Cc2ccc3c(c2)C2(OC3)OC(CO)C(O)C(O)C2O)cc1.O (centres undefined) [Tofogliflozin(CSG 452)] | 0.702 | 0.82 | 0.629 | 0.746
51 | C=C1C2CCC3C2C(C)(C)CCCC13C (single isomer, unassigned; (+)) [(+)-Longifolene] | 1.16 | 0.963 | 1.09 | 1.07
52 | CCCCCC(O)/C=C/C1C(O)CC(O)C1C/C=C\CCCC(=O)O.NC(CO)(CO)CO (centres undefined) [Dinoprost tromethamine] | 0.956 | 0.791 | 1 | 0.614
53 | CCN(CC)CCNC(=O)c1cc(S(C)(=O)=O)ccc1OC.Cl [Tiapride Hydrochloride] | 0.677 | 0.807 | 0.631 | 0.526
54 | COCCOC(=O)C1=C(C)NC(C)=C(C(=O)OC(C)C)C1c1cccc([N+](=O)[O-])c1 (centres undefined) [Nimodipine] | 0.793 | 0.862 | 0.8 | 0.668
55 | CCn1c(=O)c2c(nc(/C=C/c3ccc(OC)c(OC)c3)n2C)n(CC)c1=O [Istradefylline] | 0.729 | 0.837 | 0.623 | 0.637
56 | CCN1CCN(C(=O)NC(C(=O)NC2C(=O)N3C(C(=O)[O-])=C(CSc4nnnn4C)CSC23)c2ccc(O)cc2)C(=O)C1=O.[Na+] (centres undefined) [Cefoperazone sodium] | 1.09 | 0.775 | 1.08 | 0.62
